From PMC4242493
The list shows a part of the results. The list includes weakly bound sequences.

Molecular target: MaxL homodimer (UniProt P61244)
Test: universal protein-binding microarray (PBM)
Conditions: PBS-based mixture, 10 nM His-tagged protein dimer, 2% milk, 200 ng/uL BSA, 50 ng/uL salmon testes DNA, 0.02% TX-100; detection with Alexa 488 anti-His …; high values mean tight binding; most listed sequences are background and not binding sites; double strand, one strand shown

Sequence of UniProt P61244 (P61244 whole entry): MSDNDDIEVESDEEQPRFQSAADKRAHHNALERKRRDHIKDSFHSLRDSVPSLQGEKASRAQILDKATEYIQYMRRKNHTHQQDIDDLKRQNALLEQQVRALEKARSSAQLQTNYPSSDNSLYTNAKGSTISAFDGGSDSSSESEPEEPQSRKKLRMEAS

Row | Sequence | binding signal (normalized occupancy)
1 | ACACTTCT | 0.0773
2 | TCCCAGGA | 0.071
3 | CCCAATTA | 0.0804
4 | CCTGAGGC | 0.0688
5 | AAAAGTTT | 0.0726
6 | AGGCGTTC | 0.0755
7 | CTCCCGAG | 0.0647
8 | AGAAGCCC | 0.0653
9 | TGCCTTAA | 0.0741
10 | GTGGAGTA | 0.081
11 | AATAATAG | 0.082
12 | TACCAACA | 0.0837
13 | ACGCGGTG | 0.0842
14 | AGCGGATA | 0.0736
15 | TAAGCGCA | 0.0759
16 | CAAATAGC | 0.0753
17 | GGAATGCA | 0.0767
18 | GCACGGCA | 0.0753
19 | ATAAATAT | 0.0846
20 | GCATAGCA | 0.0801
21 | TATGATAA | 0.0875
22 | CGAACGTA | 0.0787
23 | AAGGCTCC | 0.067
24 | AGGATTAC | 0.075
25 | TCTAGTCA | 0.0729

Row | Sequence | binding signal (normalized occupancy)
26 | TCGCGGCA | 0.0731
27 | ATAAGAAC | 0.0773
28 | AAGGAGCC | 0.0741
29 | GCACGCAA | 0.083
30 | CGCCATAA | 0.075
31 | CGGAAGGA | 0.0653
32 | AACCGAAG | 0.0674
33 | CGACCCTC | 0.0724
34 | AAATATTG | 0.0787
35 | GTCAGTAA | 0.0717
36 | ACACCGAG | 0.0777
37 | AGCCCCCC | 0.0757
38 | ACCCGTTG | 0.0754
39 | CAATCCGG | 0.0674
40 | CTCCTGGC | 0.0733
41 | AATAGCGC | 0.0806
42 | AAAGACAC | 0.0773
43 | CCCTGCCG | 0.0694
44 | CCAAATGC | 0.0781
45 | AAGCATAT | 0.0839
46 | ATGCGAAC | 0.0798
47 | GATCACGA | 0.0786
48 | GCATGATA | 0.0994
49 | AGGAAAAA | 0.0682
50 | GAATGCGC | 0.075

Row | Sequence | binding signal (normalized occupancy)
51 | TGTTATAA | 0.081
52 | GGCGCACC | 0.0742
53 | CAATACGA | 0.0824
54 | GGTCCTGA | 0.0735
55 | TCGTACGA | 0.066
56 | GACTTTCA | 0.0708
57 | CAATCCCG | 0.0745
58 | CCATACGA | 0.0788
59 | GTAATCGA | 0.0841
60 | CGATGTCA | 0.082
61 | GCAGTGCA | 0.0743
62 | CGGCGTTC | 0.0691
63 | ACTGTGTA | 0.0737
64 | CTGTGCAC | 0.0869
65 | ACCTCGTC | 0.0738
66 | GGATGTGA | 0.0786
67 | CGTACAGA | 0.0703
68 | ACCTGCTC | 0.0763
69 | GCAGCGCC | 0.0702
70 | TTCAAGAA | 0.0738
71 | AAAAGGCC | 0.0652
72 | AGTCCTTG | 0.0719
73 | TACCCCCA | 0.0917
74 | CTGTACTA | 0.0743
75 | TAGTCTAA | 0.0749

Row | Sequence | binding signal (normalized occupancy)
76 | ACCGGTCG | 0.0701
77 | CGTACGAC | 0.0758
78 | CCGGTCCG | 0.0645
79 | ACCTATTC | 0.0738
80 | CGGTCACG | 0.0822
81 | ACCGGAGT | 0.0676
82 | GCGGCTCA | 0.0719
83 | ATGGAAAG | 0.0787
84 | GCGTCTCC | 0.0713
85 | CACTCAGC | 0.069
86 | AGTATTCG | 0.0769
87 | TCGTTACA | 0.0782
88 | AACGCAAA | 0.0698
89 | GCCAATAA | 0.0762
90 | GAGGAATC | 0.0767
91 | GGATAATA | 0.082
92 | CGGCCTTA | 0.0665
93 | CGGGACGA | 0.0655
94 | GCACTAGC | 0.0686
95 | AAAGCTAG | 0.0701
96 | CAAGAGAC | 0.0711
97 | ATCATGGC | 0.0863
98 | CCCCCTAG | 0.0726
99 | TATCCCCA | 0.081
100 | GCTCAGTA | 0.0736

Row | Sequence | binding signal (normalized occupancy)
101 | TAAACCTA | 0.0748
102 | GATCTCTA | 0.0742
103 | CTTAGGCC | 0.0686
104 | CACATAGA | 0.0825
105 | AGTGGTCC | 0.0686
106 | AAGGCTGA | 0.067
107 | CGTACCAA | 0.0777
108 | ACTAAAGT | 0.069
109 | AGTGTCTC | 0.0724
110 | CGCCAGAA | 0.0697
111 | ACCGATCG | 0.0717
112 | GCACGCAC | 0.0902
113 | CAGGATTA | 0.0732
114 | AATTTGGA | 0.0778
115 | ACTGAGCT | 0.069
116 | CCGAACGA | 0.0694
117 | GAGCCGCC | 0.0686
118 | TAATGAGA | 0.0781
119 | ACGCGTTG | 0.0902
120 | GGATGCGA | 0.0783
121 | ACGCATTC | 0.0764
122 | ACAATTGG | 0.0749
123 | CTACCAGA | 0.0766
124 | CACCACCG | 0.074
125 | GAGATTAA | 0.0724

Row | Sequence | binding signal (normalized occupancy)
126 | CGAAACAG | 0.0732
127 | GCGACTCC | 0.0707
128 | GTCCATGA | 0.0836
129 | ATGGGGAC | 0.082
130 | ATTTGCTC | 0.0746
131 | ATAGCCAG | 0.0717
132 | ACCCACTA | 0.085
133 | ACGTCGGC | 0.0779
134 | CTAGGATC | 0.0757
135 | GCGCGACC | 0.0739
136 | ACAGGAGG | 0.0737
137 | CGAACCGA | 0.0672
138 | CATTGAAC | 0.0813
139 | GTTGTGGA | 0.079
140 | ACGACTAC | 0.076
141 | AGTCGAGC | 0.0692
142 | AATAGAAA | 0.0789
143 | AACACCGA | 0.0761
144 | AACACGAC | 0.0822
145 | CAGAAGTC | 0.0766
146 | CGACAGCA | 0.0797
147 | CTGTGGTC | 0.0713
148 | AGCTGACG | 0.0719
149 | GCGAGTTA | 0.0723
150 | CCAAGAAA | 0.0713

Row | Sequence | binding signal (normalized occupancy)
151 | ATACCTGA | 0.0791
152 | AAACCGAG | 0.0668
153 | CTAGACTA | 0.0726
154 | AGTGAACT | 0.0691
155 | CACCTGCG | 0.0879
156 | ACGCTAAG | 0.0823
157 | GGCCTTTA | 0.0759
158 | GCGAGCCC | 0.0746
159 | GCGTGCGA | 0.0911
160 | AAGCTTGA | 0.0669
161 | AGAACCGC | 0.0681
162 | CAACCACG | 0.0943
163 | CCTATGTA | 0.083
164 | ACCAACGC | 0.078
165 | GACCCTCC | 0.0735
166 | CACGTACC | 0.0843
167 | GCTGTTTA | 0.0716
168 | CAGCACCC | 0.0752
169 | CCCTTCTA | 0.078
170 | TACCGTCA | 0.0756
171 | GATTGTGC | 0.079
172 | CCGTTCAA | 0.0737
